{
  "source": "paper PMC4336329",
  "about": "(PLoS ONE, 2015)",
  "note": "About 2,200 (0.71%) of roughly 310,000 compounds showed an effect of 50% or more. The effect is printed as a negative number. The list shows a part of the results.",
  "data": [
    {"biological_target": "human ether-à-go-go-related gene (hERG) potassium channel (human, UniProt Q12809)", "sequence (Q12809 whole entry, looked up)": "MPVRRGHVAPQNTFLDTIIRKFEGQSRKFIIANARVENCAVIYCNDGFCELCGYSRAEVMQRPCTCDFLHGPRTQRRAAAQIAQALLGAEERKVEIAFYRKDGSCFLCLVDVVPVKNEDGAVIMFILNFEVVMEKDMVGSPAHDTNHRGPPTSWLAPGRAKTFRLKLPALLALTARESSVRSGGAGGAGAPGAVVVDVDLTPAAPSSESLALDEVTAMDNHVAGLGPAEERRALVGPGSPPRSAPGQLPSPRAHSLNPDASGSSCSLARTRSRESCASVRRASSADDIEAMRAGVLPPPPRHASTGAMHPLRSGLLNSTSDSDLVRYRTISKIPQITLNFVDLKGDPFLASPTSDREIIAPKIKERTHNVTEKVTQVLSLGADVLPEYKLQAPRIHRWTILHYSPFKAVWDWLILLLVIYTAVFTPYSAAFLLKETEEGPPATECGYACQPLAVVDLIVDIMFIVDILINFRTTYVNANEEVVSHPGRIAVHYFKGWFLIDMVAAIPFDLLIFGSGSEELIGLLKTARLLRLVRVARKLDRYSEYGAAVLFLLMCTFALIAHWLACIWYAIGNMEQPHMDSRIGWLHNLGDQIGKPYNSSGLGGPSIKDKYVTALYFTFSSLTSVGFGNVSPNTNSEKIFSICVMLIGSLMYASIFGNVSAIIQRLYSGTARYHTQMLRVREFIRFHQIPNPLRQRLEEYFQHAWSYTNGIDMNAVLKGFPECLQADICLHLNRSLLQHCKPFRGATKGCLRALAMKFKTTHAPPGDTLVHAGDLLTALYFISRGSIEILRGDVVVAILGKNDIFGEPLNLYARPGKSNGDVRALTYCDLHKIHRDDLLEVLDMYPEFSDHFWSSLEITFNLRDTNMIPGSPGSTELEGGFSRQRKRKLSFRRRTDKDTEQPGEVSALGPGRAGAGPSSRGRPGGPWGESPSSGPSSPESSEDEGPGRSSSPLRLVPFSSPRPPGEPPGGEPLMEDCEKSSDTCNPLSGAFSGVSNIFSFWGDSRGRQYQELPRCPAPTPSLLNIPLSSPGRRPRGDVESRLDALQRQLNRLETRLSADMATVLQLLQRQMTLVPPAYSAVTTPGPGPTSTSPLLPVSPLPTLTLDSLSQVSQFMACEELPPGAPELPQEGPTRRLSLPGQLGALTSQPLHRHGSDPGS", "assay": "primary screen, population patch clamp on CHO cells stably expressing hERG", "units": {"hERG current change (%, negative = inhibition) at 1uM": "%"}, "values": [
      {"molecule": "CCN(CC(=O)Nc1c(F)cccc1F)C(=O)CCNC(=O)c1ccc([N+](=O)[O-])cc1", "hERG current change (%, negative = inhibition) at 1uM": -13},
      {"molecule": "COc1ccc2nc(NC(=O)c3cccc(S(=O)(=O)N4CCOCC4)c3)sc2c1", "hERG current change (%, negative = inhibition) at 1uM": 13.7},
      {"molecule": "N#Cc1ccccc1OCC(=O)OCC(=O)NC1CCS(=O)(=O)C1", "note": "(stereo not drawn)", "hERG current change (%, negative = inhibition) at 1uM": 4.81},
      {"molecule": "CCc1ccccc1NC(=O)COC(=O)c1c(C)nsc1NC", "hERG current change (%, negative = inhibition) at 1uM": 4.98},
      {"molecule": "COc1cccc(N2[C@@H](CC(C)=O)c3ccc(/C=C/C(C)=O)cc3S2(=O)=O)c1", "hERG current change (%, negative = inhibition) at 1uM": 8.23},
      {"molecule": "NC1=NC(=O)/C(=C\\c2ccco2)S1", "hERG current change (%, negative = inhibition) at 1uM": 16.9},
      {"molecule": "O=C1S/C(=C\\c2ccccn2)C(=O)N1Cc1ccccc1F", "hERG current change (%, negative = inhibition) at 1uM": 12.6},
      {"molecule": "NC(=O)C12CCCC(Br)(CCC1)C2", "hERG current change (%, negative = inhibition) at 1uM": 5.6},
      {"molecule": "Cc1nc(NC(=O)c2ccc(Br)o2)sc1C", "hERG current change (%, negative = inhibition) at 1uM": 8.42},
      {"molecule": "CCCn1c(SCC(=O)N2CCCC(C)C2)nnc1-c1cccnc1", "note": "(stereo not drawn)", "hERG current change (%, negative = inhibition) at 1uM": 16.6},
      {"molecule": "COc1cccc(NC(=O)CN(C)C(=O)Cn2[nH]c(=O)c3ccccc3c2=O)c1", "hERG current change (%, negative = inhibition) at 1uM": 24},
      {"molecule": "CSc1ncccc1C(=O)NC1CCCCCC1", "hERG current change (%, negative = inhibition) at 1uM": 5.33},
      {"molecule": "Cc1ccc(CNC(=S)Nc2cc(C)ccc2OC(F)F)cc1", "hERG current change (%, negative = inhibition) at 1uM": 2.49},
      {"molecule": "CC(=O)N1CCC(C(=O)Nc2ccccc2)(N(Cc2ccccc2)C(=O)c2cccnc2)CC1", "hERG current change (%, negative = inhibition) at 1uM": 17.6},
      {"molecule": "Cc1ccc(N=Nc2ccc(O)c3ncccc23)cc1", "hERG current change (%, negative = inhibition) at 1uM": 18.3},
      {"molecule": "CC1CN(C(=O)c2ccccc2Oc2ccccc2)CC(C)O1", "note": "(stereo not drawn)", "hERG current change (%, negative = inhibition) at 1uM": 3.26},
      {"molecule": "CCC(C)c1ccc(O)c(NC(=O)c2cncc(Br)c2)c1", "note": "(stereo not drawn)", "hERG current change (%, negative = inhibition) at 1uM": -2.11},
      {"molecule": "COc1ccc(CN2CCCC(C(=O)Nc3cccc(-n4cccn4)c3)C2)cc1", "note": "(stereo not drawn)", "hERG current change (%, negative = inhibition) at 1uM": 1.9},
      {"molecule": "CCOC(CNc1cc(C)nc2c(-c3ccccc3OC)c(C)nn12)OCC", "hERG current change (%, negative = inhibition) at 1uM": 12.6},
      {"molecule": "CCC(C)[C@H](NC(=O)N1CCCC1)C(=O)OC", "note": "(stereo partly drawn)", "hERG current change (%, negative = inhibition) at 1uM": 2.13},
      {"molecule": "COc1ccc(C(=O)Nc2nncs2)c(OC)c1", "hERG current change (%, negative = inhibition) at 1uM": 11.1},
      {"molecule": "CCC(C)(NC(=O)c1ccc(=O)[nH]c1)C(=O)NC1CCCC1", "note": "(stereo not drawn)", "hERG current change (%, negative = inhibition) at 1uM": 7.25},
      {"molecule": "N#CC1(NC(=O)CN2CCN(S(=O)(=O)c3ccccc3F)CC2)CCCC1", "hERG current change (%, negative = inhibition) at 1uM": -4.06},
      {"molecule": "Cc1cccc(C(=O)C2CCOC(C)(C)C2)c1", "note": "(stereo not drawn)", "hERG current change (%, negative = inhibition) at 1uM": 12.8},
      {"molecule": "Cc1ccsc1C(=O)C1CCCN(Cc2cn(C)nc2-c2ccccc2)C1", "note": "(stereo not drawn)", "hERG current change (%, negative = inhibition) at 1uM": 2.96},
      {"molecule": "c1ccc(Cn2ccc(-c3cnc(-c4ccccc4)s3)n2)cc1", "hERG current change (%, negative = inhibition) at 1uM": 20.5},
      {"molecule": "CCOc1ccc(-c2nnc3sc(COc4ccccc4)nn23)cc1", "hERG current change (%, negative = inhibition) at 1uM": 21.7},
      {"molecule": "COc1cc(O)cc2c1[C@@H]1Oc3c(ccc(O)c3CC=C(C)C)[C@@H]1CO2", "hERG current change (%, negative = inhibition) at 1uM": -4.24},
      {"molecule": "CCN(CC)S(=O)(=O)c1ccc(C(=O)N2CCN(C3=NS(=O)(=O)c4ccccc43)CC2)cc1", "hERG current change (%, negative = inhibition) at 1uM": 3.62},
      {"molecule": "O=C(OCc1nc2scc(-c3ccccc3)c2c(=O)[nH]1)c1cccc([N+](=O)[O-])c1", "hERG current change (%, negative = inhibition) at 1uM": 5.93},
      {"molecule": "O=c1c2ccccc2n2c(-c3cccc(Cl)c3)nnc2n1Cc1ccccc1", "hERG current change (%, negative = inhibition) at 1uM": 10},
      {"molecule": "C/C=C/C(=O)Nc1ccc(N2CCN(c3ccc(C(F)(F)F)cn3)CC2)nc1", "hERG current change (%, negative = inhibition) at 1uM": 9.74},
      {"molecule": "COc1ccc(NC(=O)COc2ccc(C(=O)OCC(=O)N(C)C3CCS(=O)(=O)C3)cc2OC)cc1", "note": "(stereo not drawn)", "hERG current change (%, negative = inhibition) at 1uM": 14.6},
      {"molecule": "COc1ccccc1NC(=O)C(=O)NNC(=O)c1ccco1", "hERG current change (%, negative = inhibition) at 1uM": 8.22},
      {"molecule": "COc1cccc(NC(=O)Cn2c(=O)n(CCC(=O)NCc3ccco3)c(=O)c3ccccc32)c1", "hERG current change (%, negative = inhibition) at 1uM": 2.13},
      {"molecule": "CN(C(=O)CSc1nc2ccccc2o1)C1CCS(=O)(=O)C1", "note": "(stereo not drawn)", "hERG current change (%, negative = inhibition) at 1uM": -3.04},
      {"molecule": "O=C(c1cccnc1)N(Cc1ccccc1)c1ccccc1", "hERG current change (%, negative = inhibition) at 1uM": -7.73},
      {"molecule": "CC(=O)c1cccc(NC(=O)CN(C)S(=O)(=O)c2ccc3c(c2)CC(C)N3C(C)=O)c1", "note": "(stereo not drawn)", "hERG current change (%, negative = inhibition) at 1uM": 17.7},
      {"molecule": "COc1cc(/C=C2/SC(=S)N(CC(=O)O)C2=O)ccc1OC(=O)c1cccs1", "hERG current change (%, negative = inhibition) at 1uM": 13.4},
      {"molecule": "CCOCCCNC(=S)N(CCCN(C)C)Cc1cc2cc3c(cc2[nH]c1=O)OCCO3", "hERG current change (%, negative = inhibition) at 1uM": 1.61},
      {"molecule": "Clc1cccc(Cl)c1CO/N=C/c1cccs1", "hERG current change (%, negative = inhibition) at 1uM": 11},
      {"molecule": "O=C(Nc1cc(=O)[nH]c(=O)[nH]1)c1cc(Cl)ccc1Cl", "hERG current change (%, negative = inhibition) at 1uM": 22},
      {"molecule": "N#CC1=C(c2ccccc2)/C(=C/c2ccccc2)OC1=O", "hERG current change (%, negative = inhibition) at 1uM": 6.62},
      {"molecule": "CCOc1cccc(=O)c2c(C)n(-c3ccc(C(=O)O)cc3)c(C)c12", "hERG current change (%, negative = inhibition) at 1uM": 18.3},
      {"molecule": "CC1CN(C(=O)CCC(=O)N2CCN(c3cccc(C(F)(F)F)c3)CC2)c2ccccc2O1", "note": "(stereo not drawn)", "hERG current change (%, negative = inhibition) at 1uM": 2.99}
    ]}
  ]
}
